Some of the results follow. At the low end of the ranking, values are background and their order means little.

In this assay the test system is T1, GST-NbGlk1(82-244).
T1 sequence: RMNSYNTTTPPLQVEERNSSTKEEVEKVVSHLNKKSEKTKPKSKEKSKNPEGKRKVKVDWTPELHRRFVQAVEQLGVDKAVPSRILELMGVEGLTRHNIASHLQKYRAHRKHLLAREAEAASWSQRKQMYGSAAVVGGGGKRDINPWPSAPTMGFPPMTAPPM
The assay is described as follows: protein-binding microarray.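 Also: rank-based score ranging −0.5 to +0.5 with E above 0.45 taken as significant binding.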 Conditions: NbGlk1 is a Golden2-like transcription factor of Nicotiana benthamiana; high values mean tight binding; most listed sequences are background and not binding sites; double strand, one strand shown.
In turn, AACAGCCA showed a binding signal of -0.223 E-score.

Take CAACCGAC: the binding signal was -0.0321 E-score.

In the case of AAGGATGT, the binding signal is -0.011 E-score.

Take AAAGGGTC: the binding signal was -0.234 E-score.

The sequence CAATGGCG had a binding signal of -0.197 E-score.

AAGAAACT: the binding signal is -0.113 E-score.

AGACAGCT displayed a binding signal of -0.16 E-score.

Take CAGAAAAC: the binding signal was determined as 0.0719 E-score.

Sequence AGACGGTC registered a binding signal of -0.327 E-score.

As to ACGCTTGG, the binding signal is -0.226 E-score.

In the case of CAAATACA, the binding signal was 0.143 E-score.

Consider ATCTTTTA, for which the binding signal is 0.259 E-score.

On to ATGACCTA, for which the binding signal was -0.204 E-score.

For ACCATGTA, the binding signal was determined as 0.0459 E-score.

AGCACAGC gave a binding signal of -0.175 E-score.

For the sequence AATATTGT, the binding signal amounted to 0.125 E-score.

Turning to AAGACATT, the binding signal is 0.0301 E-score.

Turning to AAGGTCAT, the binding signal was -0.239 E-score.

Sequence ATGCGCAC registered a binding signal of -0.0166 E-score.

Sequence CAGCCCTA returned a binding signal of -0.139 E-score.

The sequence ATGTGAAT registered a binding signal of 0.126 E-score.

Regarding ACAGCGTG, the binding signal is -0.218 E-score.

On to ACCACCAT, for which the binding signal is -0.0906 E-score.

Turning to ATTGATAC, the binding signal stood at 0.131 E-score.

In turn, AGGAAGAC gave a binding signal of -0.209 E-score.

In turn, ATTAAGTC displayed a binding signal of 0.117 E-score.

Consider AATATCCA, for which the binding signal stood at 0.396 E-score.

On to ATAAACAA, for which the binding signal is 0.0486 E-score.

In turn, ACAGAGGT returned a binding signal of -0.198 E-score.

On to ATTCACTC, for which the binding signal is -0.0173 E-score.

For AGTCTTGG, the binding signal is -0.149 E-score.

AGGGGGTG displayed a binding signal of -0.17 E-score.

Turning to AGTCATGC, the binding signal is -0.219 E-score.

Regarding AGAATCAT, the binding signal worked out at 0.359 E-score.

With ATTCGCGC, the binding signal was determined as 0.2 E-score.

For the sequence ATGCTAGC, the binding signal was -0.0697 E-score.

ACGCAGTC returned a binding signal of -0.146 E-score.

For the sequence AACCAACA, the binding signal was 0.0383 E-score.

As for AAACAGTC, the binding signal is -0.136 E-score.

ACCACGCG returned a binding signal of 0.016 E-score.

Turning to ATCAACAA, the binding signal is 0.119 E-score.

ATCCCAGC: the binding signal stood at 0.111 E-score.

On to AAGCCTAA, for which the binding signal was -0.217 E-score.

With ACTTGCCG, the binding signal was -0.149 E-score.

The sequence ATAGGCCC yielded a binding signal of -0.255 E-score.

Regarding ATGTGAAC, the binding signal is 0.084 E-score.

ATACGAAC: the binding signal worked out at 0.16 E-score.

Take ACTCGGTA: the binding signal was -0.00811 E-score.

Regarding AAGAAGCA, the binding signal is -0.13 E-score.

The sequence CACGCTAG returned a binding signal of -0.0942 E-score.

Consider AGGCTTTC, for which the binding signal is -0.0922 E-score.

Sequence ATAACTAC came in with a binding signal of -0.0567 E-score.

Regarding ATGGATAA, the binding signal was 0.173 E-score.

Sequence AGTTCAAA showed a binding signal of 0.0405 E-score.

CAAGTCGC yielded a binding signal of -0.206 E-score.

ATTCCACA registered a binding signal of 0.143 E-score.

With AAGCCCTT, the binding signal is -0.297 E-score.

AACTTGGT displayed a binding signal of -0.123 E-score.

Sequence ACCTTAAA yielded a binding signal of -0.0171 E-score.

For the sequence ATTCTCAG, the binding signal amounted to 0.32 E-score.

ACGTTTGC showed a binding signal of -0.0926 E-score.

As for ACGTAACT, the binding signal was 0.00351 E-score.

As for AGGTGTGG, the binding signal was -0.000122 E-score.

ATCGATGA came in with a binding signal of 0.123 E-score.

The sequence AGTGCGTG had a binding signal of -0.0453 E-score.

The sequence ACGTGGGG had a binding signal of -0.119 E-score.

As for CAAAGGCA, the binding signal was -0.245 E-score.

Turning to ACCAGACT, the binding signal is -0.207 E-score.

AATAGTAG showed a binding signal of 0.065 E-score.

As for ACCCATCA, the binding signal was -0.0452 E-score.

The sequence CACGTCTG showed a binding signal of -0.122 E-score.

Consider CACCATGG, for which the binding signal was -0.298 E-score.

In the case of AAGCGGAC, the binding signal was -0.12 E-score.

On to AGTCACGA, for which the binding signal worked out at 0.0268 E-score.

In turn, ACGGTATA gave a binding signal of -0.00374 E-score.

In turn, ATTCGCCG yielded a binding signal of 0.263 E-score.

As for CAAGCGTC, the binding signal is -0.238 E-score.

ATATAGAA gave a binding signal of 0.254 E-score.

As for AGTGGCCG, the binding signal was -0.154 E-score.

In the case of AACTAAGA, the binding signal is 0.0111 E-score.

AATAATCT displayed a binding signal of 0.276 E-score.

For the sequence AAAACGAA, the binding signal was 0.124 E-score.

Turning to ATAAGTAG, the binding signal is 0.00496 E-score.

Regarding ACGACAAA, the binding signal was -0.00994 E-score.

As for ATCGATGC, the binding signal is 0.0291 E-score.

On to CACGCCAC, for which the binding signal is -0.0983 E-score.

ATTTTCAG yielded a binding signal of 0.282 E-score.

In the case of ACAGTCGT, the binding signal was -0.227 E-score.

In turn, ACAGGGTA gave a binding signal of 0.00875 E-score.

For the sequence ATACGAAT, the binding signal turned out to be 0.352 E-score.

Take AGCGCGTG: the binding signal is 0.011 E-score.

Regarding ATAACTAG, the binding signal came out at 0.0239 E-score.

ATACTCGA: the binding signal came to 0.15 E-score.

Regarding AGACAGCA, the binding signal was -0.13 E-score.

For the sequence ATATAAAC, the binding signal amounted to 0.155 E-score.

On to AGATCAGC, for which the binding signal was -0.0166 E-score.

Take AATGCATG: the binding signal is -0.0947 E-score.

Regarding ATCGAAGA, the binding signal was found to be 0.181 E-score.

AATCTGGG gave a binding signal of 0.428 E-score.

Turning to ATTCTTCG, the binding signal is 0.147 E-score.

As for ACATGCAC, the binding signal was -0.0351 E-score.

In turn, ATCAAATA yielded a binding signal of 0.183 E-score.

As to ATTGATTC, the binding signal came to 0.289 E-score.

AACACTGG: the binding signal was -0.133 E-score.

In turn, AGATATAC had a binding signal of 0.241 E-score.

In turn, AGATTATG had a binding signal of 0.35 E-score.

ACTAAGCG registered a binding signal of -0.155 E-score.

Consider ATAAAACG, for which the binding signal was 0.0917 E-score.

AAGCTCGT had a binding signal of -0.109 E-score.

The sequence ATATATCG gave a binding signal of 0.276 E-score.

Regarding CAACTTGA, the binding signal was -0.0684 E-score.

For the sequence AAATAAAG, the binding signal came to 0.202 E-score.

CACATACC gave a binding signal of -0.105 E-score.

For the sequence ATAGCAAA, the binding signal came out at 0.106 E-score.

In turn, ACGGTATG displayed a binding signal of -0.226 E-score.

Turning to CAAGTACC, the binding signal is -0.257 E-score.

AGGGCAGC returned a binding signal of -0.282 E-score.

Sequence CAGCAGCC had a binding signal of -0.185 E-score.

Turning to AGAGCCGC, the binding signal is -0.377 E-score.

Consider ATCTAATC, for which the binding signal was determined as 0.331 E-score.

The sequence AAGATTGT gave a binding signal of 0.297 E-score.

AGAAACAC gave a binding signal of -0.0309 E-score.

ATCTTCGC showed a binding signal of 0.237 E-score.

Consider AATGTATC, for which the binding signal was determined as 0.0583 E-score.

For the sequence AAGTTCGA, the binding signal was found to be 0.0391 E-score.

AGGCGGGG returned a binding signal of -0.187 E-score.

On to AGTCGGTA, for which the binding signal was -0.074 E-score.

Sequence AGACATGA yielded a binding signal of -0.0158 E-score.

AGCGCGGA: the binding signal is 0.0497 E-score.

Turning to AATATAAG, the binding signal was determined as 0.143 E-score.

Turning to ATTTCAGA, the binding signal is 0.265 E-score.

Regarding ATAGCAAC, the binding signal was -0.0191 E-score.

AAAAAACC returned a binding signal of 0.0412 E-score.

In turn, AGAACTAT had a binding signal of -0.059 E-score.

AATTACGC displayed a binding signal of 0.195 E-score.

ATTCACAC showed a binding signal of 0.132 E-score.

ACCTCAAT showed a binding signal of 0.029 E-score.

ATGCTTGC came in with a binding signal of -0.16 E-score.

The sequence ACGCTTGA displayed a binding signal of 0.0268 E-score.

Regarding AACTTATA, the binding signal is 0.106 E-score.

AACACGAA showed a binding signal of 0.118 E-score.

Take AACAACTC: the binding signal was -0.0157 E-score.

In turn, CACACGGC registered a binding signal of -0.218 E-score.

Sequence AAATGGTA registered a binding signal of 0.0758 E-score.

In turn, AAAGATTG displayed a binding signal of 0.335 E-score.

Consider AGTTTAAT, for which the binding signal was -0.00225 E-score.

Turning to AAGGCACG, the binding signal is -0.29 E-score.

For AACGTACG, the binding signal was -0.104 E-score.

Sequence ATAGACAT returned a binding signal of 0.0432 E-score.

In the case of ATCGTGCA, the binding signal was determined as 0.128 E-score.

With AGCATGAG, the binding signal is -0.215 E-score.

The sequence AACGATAA had a binding signal of 0.119 E-score.

CACCTGGA gave a binding signal of -0.129 E-score.

CAAACCAA registered a binding signal of 0.0941 E-score.

Regarding ACGGTGAG, the binding signal is -0.122 E-score.

Sequence ACTCACGG had a binding signal of 0.0204 E-score.

The sequence AATTGAGT displayed a binding signal of -0.0253 E-score.

AGGTCGTG returned a binding signal of -0.13 E-score.

ACTTTACA gave a binding signal of 0.0432 E-score.

Sequence AGACTTGC had a binding signal of -0.186 E-score.

CACCGCAC: the binding signal is 0.0411 E-score.

Consider ATAGGATG, for which the binding signal was -0.0678 E-score.

In turn, AGAGTCTG came in with a binding signal of -0.18 E-score.

On to AAGTGTTA, for which the binding signal is -0.00912 E-score.

Regarding ACTAAGTA, the binding signal was -0.00376 E-score.

AGGCTGAA: the binding signal is -0.276 E-score.

Sequence AATAATCG returned a binding signal of 0.162 E-score.

With ATTATCAG, the binding signal worked out at 0.197 E-score.

As for ACTAATTA, the binding signal was found to be 0.112 E-score.

AGTAGTGC returned a binding signal of -0.117 E-score.

On to AGTCCTAC, for which the binding signal was -0.179 E-score.

CACCATCC showed a binding signal of -0.111 E-score.

The record behind these values is PMC5836133.
